According to the supplement of paper PMC10126150:
Values marked as one replicate rest on one cluster of the flow cell; about a third of the high ones do not repeat.

Test system: ATP
Assay: switch fluorescence ratio, 500 uM ATP over buffer (Cy3 cluster intensity, sum of 5 cycles each) (fold (ratio)); higher = stronger signal-on switching upon ATP binding; sequences stand for … in TCGTCGGCAGCGTCAGATGTGTATAAGAGACAGTTTTTTTTTTTTTTTTTTTTTTTTT…TC
Conditions: aptamer strand: ATP DNA aptamer (quencher-CACCTGGGGGAGTATTGCGGAGGAAGG + anchor), 100 nM annealed; ATP concentration: 500 uM; one replicate
How it was run: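 Exposure to 500 uM ATP lasted 15 min at 22 °C before imaging, and a selection-buffer image was taken beforehand, for Cy3-labelled switching-strand clusters on a modified Illumina MiSeq flow-cell annealed to 100 nM quencher-labelled ATP aptamer. Five buffer/ATP cycles were run with NaOH stripping and re-annealing between them. The fluorescence ratio per cluster is summed target-cycle over summed buffer-cycle Cy3 intensity, averaged per switch-domain sequence. Clusters outside 100-1000 RFU were excluded.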

Sequence	switch fluorescence ratio
TAAACTCACG	1.38
TGACACTTGC	1.06
TAATTGCTTG	0.997
TGTGGAGACT	0.976
CCCCCCAATT	1.9
TACATGGG	0.943
GGGGTTCTTC	1.05
TGGGGAGTTT	1.03
GGGCCTGCGG	0.954
ATACATGTA	0.989
TCTTCCCAAG	1.07
TTGTGGCATG	0.991
ATGGGTGACT	0.966
GTGGTTAGG	0.996
AGGGAAGTAT	1.06
CGTTGGGGTA	1.01
GCGTCACGTA	1.1
CTGCTTCATC	1.03
GGAAGACGCT	0.986
ACTCAAAGTC	1.12
CACACTTATA	1.04
ACGTACACCA	1.4
GCAAAGACTT	1.15
CAAGATCCTC	1.03
ACGTGTATGC	1.01

Sequence	switch fluorescence ratio
CACCACGATC	1.22
TTCATACTTT	1.02
CTTGTGCCCA	0.973
AATCCATGTC	1.18
ACTGTCAATT	1.03
GTCGGATCAG	0.955
TTTGTTCTG	1.07
ACAGATTTTC	0.986
GGGAAGTATT	1.02
AATGAAGTTG	0.971
AGGTGATGTC	1.18
AAGAGTTGGA	1.04
CTTACCCCGC	3.69
ATGGAGTGCG	0.954
CACTCTACC	1.32
TTGCACTGT	1.18
CAGTGTTCGA	1
AAGAAAACAT	1.01
CGTATCCCCA	1.02
ATTTCCAGGC	1.35
GGAGTTCGAT	0.977
TGAAAAAACT	1.02
AAATACGGG	1.05
CACATGGTCA	0.969
CTTGAGTAAC	1.03

Sequence	switch fluorescence ratio
TGCTGGTATT	0.987
TTACGTTGGA	1.02
GGGCATAAAT	1
GGCTTGAG	0.981
AGCTGTGCTC	1.08
CTCAGCAGCT	2.24
ATCGGTCCAT	1
ACCTGTCCCG	1.37
CAGTGCAGGA	0.989
GCCCTTTGTA	0.98
GAATCATAAA	0.999
TTGTCGACAT	1
AGGCGTAGGA	1.01
ATCACATCGC	1.03
AGTTTTGCTA	1.03
GAGCCATCTG	1.01
AAGACTAGCT	0.992
ACTTATGAGG	1.02
TGATGTAAAT	1.08
AAAACTGTGT	1.03
GACTGGCCAT	1.03
GGGCGGGAGC	1.02
AATTTCTACG	1.04
GCAAGAATCT	1.06
CTTGGCATGC	1.2

Sequence	switch fluorescence ratio
CCGTCCCAGT	1.86
AGCCGTAGCT	1.15
TCGAAGGCT	1.03
ACATGCAAGA	1.06
GGACCAGCCT	1.09
ATAAGCGGCT	1.01
GAAGTACTCG	1.13
TATACGCTGG	0.963
ATATGTTCAC	1.02
ATTAAGAATA	0.998
CCAACCCTTA	1.03
TCAATCGGGA	1
TGGAGTTGCC	0.972
TATAATTGCA	0.975
CCAGAACACT	1.05
AAATCTAGCT	1.03
CCTATACGTC	1.11
GTCGTCCCCA	0.935
GGTTTGCCGG	1
TGCTACGTGA	2.15
ATCAAGGTAG	1.02
GCATCCATAA	1.02
CAATCAGTAC	1.21
CGGATGCTTG	1.07
CGGGTTTGGC	0.958

Sequence	switch fluorescence ratio
TTTCCAATAT	1.05
ATGTTGAGGG	1.03
CTTAATGCAC	1.07
GACATCAAGC	1.03
TAAAGGAGCG	1.01
TTCTCTGACA	1.09
ATCAGGTA	1.02
ACACGTTCGT	0.98
TTAAGCATGA	1.05
GTCGCTGAGG	0.971
GTCAATACAT	1.13
GGTTTAGAAG	0.984
TTCTTCAAT	0.954
GCGCAAGAAT	1.02
CTTTGGGGAG	1.33
CTGTGTGCTG	1.06
GGTGAAGTTC	1.04
GCTTACCTCG	1.03
TAGAGCACCG	0.935
AAGGTTGATC	0.966
GTCAGGAGGC	0.981
CTCAGAGGTG	1.36
TGACTACCGA	1.08
TCGCGCATGT	1.13
TTACATAGGC	1.07

Sequence	switch fluorescence ratio
CAGCGAGTGC	1.14
AATTATATTT	1
TGACTCGCTC	1.09
CGTTCATCAA	1
GGCTTAGGAT	0.954
GGGGCCTTCT	0.954
ATTTCAACAC	1.1
GGTGCATCGG	1.04
GAAGGTTCGC	1.05
GATTGGATGC	1
GACCGCGTGC	1.67
ACCCTCAGTT	1.03
TAGGTGTGAG	0.96
GCACGATGCG	0.991
CAGGAATCGG	1.01
GTAAGATGGT	0.937
CTACGTTGGC	1.59
CCGGCTTGGT	1.03
TGACTATCT	0.999
ACCATATGAA	1.02
GGTTGTCGGG	0.977
CACGGAGAAT	1.02
ATGTAGAAAG	0.976
TGCTTCGACA	0.98
GTCTCTTCTT	1.04

Sequence	switch fluorescence ratio
TTAGACCAGG	1.09
CGTCTCAGAG	1.05
AGTGGTGTAT	0.996
AGGGGACCGT	0.998
CGGGGTCTAT	0.95
AGCGAAACGG	1.08
GTCCGTGCTT	0.975
GCTGACTTGA	0.968
TATACAATAG	1.05
AGAGGGGATT	0.988
GCGCGTACGT	1.01
CTGGAGCGCC	1.6
TGCCACTCGG	0.998
AGCTGTGGTA	0.998
TAACGCAGGG	1.02
TACGTTCAGC	1.06
GGCAGCCTGT	0.97
CTGATTTTA	0.987
TTCTAATTAG	0.966
GCAGTTCTC	1.09
AGTGACCCAG	1
CAAGACATAT	0.987
GCGTTTGTTA	1.04
GCAGATCAGC	1.05
TACCAAGTTA	0.969

Sequence	switch fluorescence ratio
GAAACAATAG	1.32
TCATTCAGCT	1
TGTGTCATCT	0.97
ACGTGTGACC	1.03
TGACGGGCGT	0.984
TTCGCATTAT	2.83
CCCACTGCGG	1.13
ACTTGTACAG	1.05
CGGTGTGATC	1.04
GGAATTGAGG	0.941
TAAACGCCG	1.07
GACTAAAAGT	0.957
ACCTTGGACT	1.03
AGGCAGCGGA	1.01
TCTATGCTGA	1.66
CCCATTAAAT	0.971
AGATCGTATG	1.01
TTTAATAATA	1.01
AAGTAAGGCA	1.04
CCCAGCGGAG	1.02
ACATTAACAA	1.03
TGAATGATGT	0.946
CACTTCGGCT	0.972
ATTGCTTTAA	1.03
GGGGTTACC	0.998
